Data from US20260132208A1.
For part of its entries the source gives two or more results. They are shown here; other results are not. The source may hold further records. The records of an entry read as repeated measurements on other runs, samples or individuals.

Columns and labels:
[1] = molecular target: human CCR8 with a SNAP-tag at the N-terminus (human) (UniProt P51685); test: HTRF Tag-lite, inhibition of hCCL1-AF647 binding to SNAP-hCCR8 on HEK-293 cells
human CCR8 (human) = human CCR8 (human) (UniProt P51685); test: flow cytometry, inhibition of hCCL1-AF647 (10 nM) binding to hCCR8-CHO cells

**Q.** Which IC50 [1] does the source give for “murine anti-human CCR8 monoclonal antibody L263G8” here?
**A.** Its IC50 is 0.14 µg/mL and 0.96 nM [columns of one line].

**Q.** And the Ki [1]?
**A.** Its Ki is 0.07 µg/mL and 0.48 nM [columns of one line].

**Q.** And the IC50 (human CCR8 (human))?
**A.** Its IC50 is 0.4 µg/mL and 2.7 nM [columns of one line].
